The structures appear in SMILES notation. Counter-ions that a name gives are not always drawn. The list shows a part of the results.

From the supplement of paper PMC2702839 come the findings set out here.

The subject of this assay is Schistosoma mansoni schistosomula. The assay is described as follows: phenotypic hit in primary schistosomula screen (any phenotype vs DMSO control) (binary (1 = hit, 0 = no phenotype)); higher = active (phenotype induced). Particulars: 1 µM; time (d): 7.
For the molecule `COc1ccc2c(=O)c(CC(=O)O)coc2c1` [anhydrobrazilic acid], the phenotypic hit is inactive: 0.
On to `CNc1ccccc1C(=O)N1CCc2c([nH]c3ccccc23)C1=O` [rhetsinine], for which the phenotypic hit is inactive: 0.
Regarding `Cc1cc(N)c2ccccc2[n+]1CCCCCCCCCC[n+]1c(C)cc(N)c2ccccc21` [dequalinium chloride], the phenotypic hit is inactive: 0.
Turning to `Nc1c2c(nc3ccccc13)CCCC2O` (stereo not drawn) [hydroxytacrine maleate], the phenotypic hit was inactive: 0.
As for `COc1ccccc1OCC(O)COC(N)=O` (stereo not drawn) [methocarbamol], the phenotypic hit was inactive: 0.
Consider `NCCNC(=O)c1ccc(Cl)cc1` [Ro 16-6491 hydrochloride], for which the phenotypic hit is inactive: 0.
The same measure for `COc1ccc2cc(C(C)C(=O)O)ccc2c1` (single isomer, unassigned; (+)) [(+)naproxen]: inactive: 0.
`CC1(C)CC2C1CCC1(C)OC2(C)CCC1O` (stereo not drawn) [3,7-epoxycaryophyllan-6-ol]: the phenotypic hit is inactive: 0.
As to `OCc1ccccc1O` [salicyl alcohol], the phenotypic hit was inactive: 0.
Consider `O=C(c1ccccc1)c1ccc2n1CCC2C(=O)O` (stereo not drawn) [ketorolac tromethamine], for which the phenotypic hit was inactive: 0.
The value for `N[C@@H](C(=O)O)[C@@H](O)[C@H](O)[C@H](O)CO` [glucosaminic acid] was inactive: 0; that for `COc1c(N2CCNC(C)C2)c(F)cc2c(=O)c(C(=O)O)cn(C3CC3)c12` (stereo not drawn) [gatifloxacin] was inactive: 0; that for `CN1Cc2c(N)cccc2C(c2ccccc2)C1` (stereo not drawn) [Nomifensine maleate] was inactive: 0.
On to `C=CCSCC1Nc2cc(Cl)c(S(N)(=O)=O)cc2S(=O)(=O)N1` (stereo not drawn) [althiazide], for which the phenotypic hit is inactive: 0.
As for `Cc1cc(O)c2c(O)c3c(O)cccc3cc2c1` [chrysarobin], the phenotypic hit was inactive: 0.
As for `COc1ccc2oc3ccccc3c(=O)c2c1` [2-methoxyxanthone], the phenotypic hit was inactive: 0.
The same measure for `NC(=O)c1cccc(N)c1` [3-aminobenzamide]: inactive: 0; for `c1ccc(CN(CC2=NCCN2)c2ccccc2)cc1` [antazoline phosphate]: inactive: 0; for `CC(=O)c1ccc(O)c(CC=C(C)C)c1` [3-prenyl-4-hydroxyacetophenone]: inactive: 0.
In the case of `CC(=O)OCC(=O)[C@H]1CC[C@H]2[C@@H]3CCC4=CC(=O)CC[C@]4(C)[C@H]3CC[C@]12C` [desoxycorticosterone acetate], the phenotypic hit was inactive: 0.
As for `COc1ccc(-c2cc(=O)c3ccccc3o2)cc1OC` [3',4'-dimethoxyflavone], the phenotypic hit is inactive: 0.
Take `COc1cc(O)ccc1C(C)=O` [isopeonol]: the phenotypic hit was inactive: 0.
Turning to `CC1(C)[C@@H](OC(=O)CCC(=O)O)CC[C@]2(C)[C@H]3C(=O)C=C4[C@@H]5C[C@@](C)(C(=O)O)CC[C@]5(C)CC[C@@]4(C)[C@]3(C)CC[C@@H]12` [carbenoxolone sodium], the phenotypic hit was inactive: 0.
For the molecule `CC(CN(C)C)CN1c2ccccc2Sc2ccccc21` (stereo not drawn) [trimeprazine tartrate], the phenotypic hit was inactive: 0.
In the case of `Cc1cc(=O)c2c(o1)-c1c(cc(O)c(O)c1C(=O)O)OC2` [citromycetin], the phenotypic hit was inactive: 0.
On to `N=C(N)NCCN1CCCCCCC1` [guanethidine sulfate], for which the phenotypic hit is inactive: 0.
On to `CC12CCC3c4ccc(OCc5ccccc5)cc4CCC3C1C[C@@H](O)[C@@H]2O` (stereo partly drawn) [estriol benzyl ether], for which the phenotypic hit was inactive: 0.
In the case of `O=C(/C=C/c1ccc(O)c(O)c1)O[C@@H]1C[C@](O)(C(=O)O)C[C@@H](O)[C@H]1O` [chlorogenic acid], the phenotypic hit was inactive: 0.
On to `CC[C@@H](CO)NCCN[C@@H](CC)CO` [ethambutol hydrochloride], for which the phenotypic hit is inactive: 0.
With `CC1(C)Oc2ccc3ccc(=O)oc3c2CC1O` (stereo not drawn) [lomatin], the phenotypic hit is inactive: 0.
In the case of `Nc1ccccc1C(=O)CC(N)C(=O)O` (stereo not drawn) [kynurenine], the phenotypic hit was inactive: 0.
Consider `CCCCC/C=C\C/C=C\C/C=C\C/C=C\CCCC(=O)O` [arachidonic acid], for which the phenotypic hit was inactive: 0.
For the molecule `COc1cc(NC(C)CCCN)c2ncccc2c1` (stereo not drawn) [primaquine diphosphate], the phenotypic hit is inactive: 0.
The same measure for `CCCCC1(COC(=O)CCC(=O)O)C(=O)N(c2ccccc2)N(c2ccccc2)C1=O` [suxibuzone]: inactive: 0; for `COC(=O)[C@@H]1OC(=O)[C@H]2O[C@@]23[C@@]1(C)CCC1[C@@]2(C)CCC(=O)C(C)(C)C2C[C@@H](OC(C)=O)[C@]13C` (stereo partly drawn) [dihydrogeduninic acid, methyl ester]: inactive: 0; for `CSc1ccc2c(c1)N(CCC1CCCCN1C)c1ccccc1S2` (stereo not drawn) [Thioridazine hydrochloride]: inactive: 0.
`CC1=C(/C=C/C(C)=C/C=C/C(C)=C\C(=O)O)C(C)(C)CCC1` [isotretinon]: the phenotypic hit is inactive: 0.
For the molecule `CC/C(=C(/CC)c1ccc(O)cc1)c1ccc(O)cc1` [diethylstilbestrol], the phenotypic hit was inactive: 0.
In the case of `Cc1cc(-c2ccccc2)nnc1NCCN1CCOCC1` [minaprine hydrochloride], the phenotypic hit is inactive: 0.
The same measure for `COc1ccc(-c2cc(=O)c3c(OC(C)=O)cc(OC(C)=O)cc3o2)cc1` [acacetin diacetate]: active: 1.
The same measure for `NC(N)=Nc1nc(CSCC/C(N)=N/S(N)(=O)=O)cs1` [famotidine]: inactive: 0; for `COC1(C)CCC2OC2(C)CCC2C1CC2(C)C` (stereo not drawn) [2-methoxy-5 (6)epoxy-tetrahydrocaryophyllene]: inactive: 0.
Consider `CN(C)[C@@H]1C(O)=C(C(N)=O)C(=O)[C@@]2(O)C(O)=C3C(=O)c4c(O)cccc4[C@@](C)(O)[C@H]3[C@H](O)[C@@H]12` [oxytetracycline], for which the phenotypic hit is inactive: 0.
The same measure for `CN(C)c1ccc(O)c2c1C[C@H]1C[C@H]3[C@H](N(C)C)C(O)=C(C(N)=O)C(=O)[C@@]3(O)C(O)=C1C2=O` [minocycline hydrochloride]: inactive: 0; for `Cc1ccsc1/C=C/C1=NCCCN1C` [morantel citrate]: inactive: 0; for `O=C(O)CCCC[C@@H]1CCSS1` (racemic) [thioctic acid]: inactive: 0.
As for `O=C(COc1ccc(Cl)cc1)N1CCN(Cc2ccc3c(c2)OCO3)CC1` [fipexide hydrochloride], the phenotypic hit is inactive: 0.
`CN(Cc1cnc2nc(N)nc(N)c2n1)c1ccc(C(=O)N[C@@H](CCC(=O)O)C(=O)O)cc1` [methotrexate]: the phenotypic hit was inactive: 0.
Turning to `O=c1c(O)cc([C@H]2Oc3cc(O)cc(O)c3C[C@H]2O)cc2c([C@H]3Oc4cc(O)cc(O)c4C[C@H]3O)cc(O)c(O)c12` [theaflavin], the phenotypic hit is inactive: 0.
The value for `CCN(CC)CCNc1ccc(CO)c2sc3ccccc3c(=O)c12` [hycanthone] was active: 1.
The value for `CC(C)(C)CC(C)(C)c1ccc(O)c(Cc2ccc(Cl)cc2Cl)c1` [clofoctol] was active: 1; that for `CCN(CC)CCOC(=O)C(c1ccccc1)c1ccccc1` [adiphenine hydrochloride] was inactive: 0; that for `CCOC(=O)c1ccc(N)cc1` [benzocaine] was inactive: 0.
Take `CC(C)CCCC(C)C1CCC2C3=CCC4CC(O)CCC4(C)C3CCC21C` (stereo not drawn) [lathosterol]: the phenotypic hit is inactive: 0.
On to `Cc1ccc(S(=O)(=O)NC(=O)NN2CCCCCC2)cc1` [Tolazamide], for which the phenotypic hit was inactive: 0.
The same measure for `COc1cccc(OC)c1C(=O)N[C@@H]1C(=O)N2[C@@H]1SC(C)(C)[C@@H]2C(=O)O` [methicillin sodium]: inactive: 0; for `CO[C@H]1C[C@H](O[C@H]2[C@H](C)[C@@H](O[C@@H]3O[C@H](C)C[C@H](N(C)C)[C@H]3O)[C@@H](C)C[C@@]3(CO3)C(=O)[C@H](C)[C@@H](O)[C@@H](C)[C@@H](C)OC(=O)[C@@H]2C)O[C@@H](C)[C@@H]1O` [oleandomycin phosphate]: inactive: 0.
The same measure for `Nc1ccc(S(=O)(=O)Nc2ccccn2)cc1` [sulfapyridine]: inactive: 0; for `O=C(O)[C@H](O)[C@@](O)(Cc1ccc(O)cc1)C(=O)O` [piscidic acid]: inactive: 0; for `CC1(C)[C@H]2CC[C@]1(C)C(=O)C2` [1s-camphor]: inactive: 0.
With `Nc1ccn([C@@H]2O[C@H](CO)[C@@H](O)[C@@H]2O)c(=O)n1` [cytarabine], the phenotypic hit was inactive: 0.
Turning to `CC(=O)N[C@@H](C=O)[C@@H](O)[C@H](O)[C@H](O)CO` [acetylglucosamine], the phenotypic hit was inactive: 0.
Take `CC(C)Cn1c(=O)n(C)c(=O)c2[nH]cnc21` [3-Isobutyl-1-methylxanthine]: the phenotypic hit is inactive: 0.
On to `O=c1[nH]cnc2c1ncn2[C@@H]1O[C@H](CO)[C@@H](O)[C@H]1O` [inosine], for which the phenotypic hit was inactive: 0.
On to `COc1cc([C@@H]2c3cc4c(cc3[C@@H](O[C@@H]3O[C@@H]5CO[C@@H](c6cccs6)O[C@H]5[C@H](O)[C@H]3O)[C@H]3COC(=O)[C@H]23)OCO4)cc(OC)c1O` [teniposide], for which the phenotypic hit is inactive: 0.
`CC1(C)C=Cc2cc3ccc(=O)oc3cc2O1` [xanthyletin]: the phenotypic hit was inactive: 0.
With `O=c1ccc2ccccc2o1` [coumarin], the phenotypic hit was inactive: 0.
Regarding `CN(C)CCCN1c2ccccc2Sc2ccc(Cl)cc21` [Chlorpromazine hydrochloride], the phenotypic hit is active: 1.
Turning to `CCOC(=O)c1c(C)cc(O)cc1O` [orsellinic acid, ethyl ester], the phenotypic hit was inactive: 0.
The value for `O=c1ccn([C@@H]2O[C@H](COP(=O)(O)OP(=O)(O)OP(=O)(O)O)[C@@H](O)[C@H]2O)c(=O)[nH]1` [uridine triphosphate trisodium] was inactive: 0; that for `COc1cc(O)c2c(=O)cc(-c3ccc(O)cc3)oc2c1` [genkwanin] was inactive: 0.
The value for `CC(=O)[C@H]1CC[C@H]2[C@@H]3CC=C4C[C@@H](O)CC[C@]4(C)[C@H]3CC[C@]12C` [pregnenolone] was inactive: 0; that for `CN(C)c1ccc(C(=C2C=CC(=[N+](C)C)C=C2)c2ccc(N(C)C)cc2)cc1` [gentian violet] was inactive: 0.
